Assay results as given in a compilation of properties of binary mixtures (doi:10.1021/je950194b).
Some of these densities may be calculated back from excess volumes.

Test: xn = mol fraction of the nth substance listed
Conditions: 100 kPa

CCC(=O)O + C1CCCCC1
313.15 K
Conditions	mass density [kg/m3]
x1 = 0.0257	762.4
x1 = 0.0991	771.4
x1 = 0.3107	801.9
x1 = 0.376	812.9
x1 = 0.4285	822.2
x1 = 0.4573	827.7
x1 = 0.4944	834.8
x1 = 0.6412	866.3
x1 = 0.673	873.9
x1 = 0.7165	884.6
x1 = 0.8307	915.8
x1 = 0.9059	939
x1 = 0.9247	945.3
x2 = 0.0076	968.9

CCC(=O)O + C1CCOCC1
313.15 K
Conditions	mass density [kg/m3]
x1 = 0.0296	867
x1 = 0.3615	901.6
x1 = 0.3952	905.2
x1 = 0.482	914.5
x1 = 0.5345	920.2
x1 = 0.5992	927.2
x1 = 0.653	933.1
x1 = 0.6856	936.7
x1 = 0.7538	944.2
x1 = 0.8324	952.9
x1 = 0.9452	965.6

CCC(=O)O + C1COCCO1
313.15 K
Conditions	mass density [kg/m3]
x1 = 0.0237	1010.7
x1 = 0.0864	1009.7
x1 = 0.1655	1008.2
x1 = 0.2699	1006
x1 = 0.3544	1003.9
x1 = 0.409	1002.3
x1 = 0.4445	1001.2
x1 = 0.5396	998
x1 = 0.5697	996.9
x1 = 0.6632	993
x1 = 0.7335	989.6
x1 = 0.7945	986.2
x1 = 0.8857	980.5
x1 = 0.9233	977.8
x2 = 0.0123	972.7

CCC(=O)O + CCCCCCCC
298.15 K
Conditions	mass density [kg/m3]
x1 = 0.0382	690.9
x1 = 0.155	706.5
x1 = 0.2576	722.3
x1 = 0.413	751.2
x1 = 0.5608	785.8
x1 = 0.6551	813
x1 = 0.7525	846.4
x1 = 0.7937	862.6
x1 = 0.8363	881
x1 = 0.9358	931.6
x1 = 0.9631	947.8
x2 = 0.008	966.3

CCC(=O)O + Cc1cc(C)cc(C)c1
313.15 K
Conditions	mass density [kg/m3]
x1 = 0.039	851.2
x1 = 0.0956	854.8
x1 = 0.2007	862.1
x1 = 0.3474	873.9
x1 = 0.3961	878.3
x1 = 0.4527	883.8
x1 = 0.5695	896.6
x1 = 0.6164	902.3
x1 = 0.6504	906.8
x1 = 0.6807	911
x1 = 0.7281	917.9
x1 = 0.8219	933.4
x1 = 0.9578	961.3
